# Experimental data from the RNAGym collection of RNA variant scans (doi:10.7554/elife.90254).
# The source gives no read counts; variants with many changes may rest on few reads.
# B1: LINE1-mini (parent)
# chain: GGCAGAGCUCAACACAGCGUGGCAAAGUGGCUGUGGCUAGACUGCC
# Variants of: B1
# Experiment: self-cleavage, relative activity (ratio to wild type); higher = more cleavage; in vitro, sequencing; the parent is a self-cleaving ribozyme
row,Variant,self-cleavage
1,GGCAGAGCUUAACACAGCUUGGCUAAGUGCCUGUGGCUAGACUCCG,0.01
2,GGCAGAGCUUAACACAGCGUAGCAAUGUGGCUUUGGCGAGACUGGC,0.05
3,GGCAGAGCUCCACACAGCGUGGCCAAGUGGCUUUGGCUAGACUGCC,0.01
4,GGCAGAGCUUAACACAGCGUGCCAAAGUGGCAGUGGCUAGACUGCC,0.01
5,GGCAGAGCUUAACACAGCGGGGCAAAGUGUCUGUGGCUAGACUGCC,0.28
6,GGCAGAGCUUAACACAGCUUGGCAAAGUGGCUGUGGUUAGACUGCC,0.02
7,GGCAGAGCUCCAGACAGCGUAGCAAAGGGGCUGUGGCUAGACUGCC,0.01
8,GGCAGAGCUUAACACAGCGUGGCAAAGUGGCUGAGGCUAGACUCCC,0.02
9,GGCAGAGCUCCACACAGCGUGGCAAAGUGGCUGUGGUUAGACUGUC,0.01
10,GGCAGAGCUCCACACAGCGUGGCAAGGUGGCUGUGGCUAGAUUGCC,0.01
11,GGCAGAGCUCCACCCAGCGUGGCAAAGUGGCUGGGGCUAGACUGCC,0.02
12,GGCAGAGCUCCACACAGCGUGGGAUAAUGGCUGUGGCUAGACUGCC,0.04
13,GGCAGAGCUUAACACAGCGUGGCAAAUUAGCUGUGGCUAGACUGCC,0.33
14,GGCAGAGCUCCACACAGCGUGGCAGAGUGGCUGGGGCUAGACUGCC,0.01
15,GGCAGAGCUUAACACAGCGAGGCAAAGUGCAUGUGGCUAGACUGCC,0.14
16,GGCAGAGCUCCAAACAGCGUGGAAAAGUGGCUGUGCGUGGACUGCC,0
17,GGCAGAGCUCCAAACAGCGUGGCAAAAUGGCUGUGGCUAGACUGCC,0.02
18,GGCAGAGCUCCACAUAGCGUGGUAAAGUGGAUGUGGCUAGACGGCC,0
19,GGCAGAGCUCCACAGAGCGUGGCAAAGUGGCUAUGGCUAGACUGCC,0
20,GGCAGAGCUCCACACAGCGUGGCAAAGUGGGUGAUUCUAGACUGCC,0.01
21,GGCAGAGCUCCUCAUAGCGUGGCAAAGUGUCUAUGGCUAGACUGUC,0.01
22,GGCAGAGCUUAACACAGCGUGGCAAAAUGGCUGUGGGUAGACUACC,0.01
23,GGCAGAGCUCCACACAGCGUGGCAUAGUGGCUUUGGCUAGCCUGCG,0.01

row,Variant,self-cleavage
1,GGCAGAGCUUAACACAGCCUGGCAAAGUGGUCGUGGCUAGACUGCC,0.04
2,GGCAGAGCUUAACACAGCGUGACAAAGCGGCUGUGGCUAGACUGCC,0.03
3,GGCAGAGCUUAACACAGCGGUGCAAAGAGGCUGUGGCUAGACUGCC,0.15
4,GGCAGAGCUCCAUACAGCGUGGCGAAGUGGCUGUGGCUAGACUGCC,0.03
5,GGCAGAGCUCCAAACAGCGUGGCAGGGUGGCUAUGGCUAGACUGCC,0.03
6,GGCAGAGCUUAACACAGCGUUGCUAAGUGGCUGUGGCUAGACUGCC,0.8
7,GGCAGAGCUCCACACAGCGUGGCAAAGUGGAUGUGGCUAGACUACC,0.01
8,GGCAGAGCUCCUCAAAGCGUGGCAUAGUUGCUGUGGCUAGACUGCC,0
9,GGCAGAGCUUAACACAGCGUGCCAAAGUUGCUGUGUCUAGACUGCC,0.02
10,GGCAGAGCUCCACAUAGCGUGGCAAAGUAGCUGUGGCUAGACUGCC,0.01
11,GGCAGAGCUCCACACGGCGUGGCACAGUGGCUGUGGCUAGCCUGCC,0.01
12,GGCAGAGCUCCACACAGCGUGGCAUAGUGGCUGUGGCUACACUGCC,0.04
13,GGCAGAGCUUAACACAGCGUUGCAAAGUGGUUGUGGCUAGACUGCC,0.53
14,GGCAGAGCUCCACUCAGCGUGGCAAAGUGGCUGUUGCUAGACUGCA,0.01
15,GGCAGAGCUCCACACAGCGUGGCAACGUGGAUGUGGCUAGACUGCC,0
16,GGCAGAGCUCCACACAGCGUGGUAAAGUGGCUGUAUCUAGACUGUC,0.01
17,GGCAGAGCUUAACACAGCUUGGCAAAGUGUCUGUGGCUAGACUGCC,0.4
18,GGCAGAGCUCCACAAAGCGUGGCAUAGUGGCUGUUGCUAAACUGCC,0
19,GGCAGAGCUCCACACAGCGUGGCAAUGUGGCUGUGGCUAGACUGGC,0.01
20,GGCAGAGCUCCACACAGCGUGGGAUAGUGGCUGUGGCUAGACCGCC,0.02
21,GGCAGAGCUCCACAAAGCGUAGUAAAGUGGCUGUGGCUCGAGUGCC,0.01
22,GGCAGAGCUCCACACAGACUGGCAAAGUAGCUGUGGCUAGACUGAC,0.01
23,GGCAGAGCUCCACACAGCGUGGUACAGUGGCUGUGGCUAGACUGCC,0

row,Variant,self-cleavage
1,GGCAGAGCUCCACACGACGUCACAAAGUGGCUGUGGCUAGACUGCC,0.01
2,GGCAGAGCUCCACACAGCGUGGCAAAGUGGAUGUGGCUAGACCGCC,0.01
3,GGCAGAGCUUAACACAGCGUGCCAAAGUGGCUGUGGCUAGACUGCA,0.07
4,GGCAGAGCUCCAAACAGCGUGGCAAAGUGGCUGUCGCUAGACUACC,0.02
5,GGCAGAGCUUAACACAGCGUGGCAAAGUUGCUGUGGCUAAACUUCC,0.02
6,GGCAGAGCUCCACACAGCGUGGCAAAGUGGCUGUGGCUCGACUCCC,0
7,GGCAGAGCUCCACACAGCAUGGCAAAGUGGCUGUGGCGAUACUGCC,0.03
8,GGCAGAGCUUAACACAGCCUGGCAAAGUGGCUUUGGCUAGACUGCC,0.09
9,GGCAGAGCUUAACACAGCGUGUCAAAGUGGCUGUCGCAAUACUGCC,0.02
10,GGCAGAGCUCCACACAGCGUGGUAAAGUGGCUGUGGCUACACUGCC,0.02
11,GGCAGAGCUUAACACAGCUUGGCAAAGUUGCUGUGGCUCGACUGCC,0.07
12,GGCAGAGCUCCUCACAGCGUGGCAAAGUGGCUGUGGGUAGCCUGCC,0.01
13,GGCAGAGCUCCACACACAGUGGCAAAGUGGCUGUGGCUAGACUGUC,0
14,GGCAGAGCUCCACAUAGCGUGGCAAGGUGGCUGUGUCUAGACUGCC,0.04
15,GGCAGAGCUCCACAGAGCGUGGCAAUGUGGCUGUGGCUAGACUGCC,0.01
16,GGCAGAGCUCCACCCAGCGUGGCAAUGUGGCUGUGGUUAGACUGCC,0.02
17,GGCAGAGCUCCACAUAGCGUGGCAAAGUGGCUGUGGCUAGACUGAC,0.02
18,GGCAGAGCUCCACAGAGCGUGGCAAAGGGGCUAUGGCUAGACUGCC,0.01
19,GGCAGAGCUCCAUACAGCGUGGCAAAGUGGCUGUGGCUAGUCUGCC,0.01
20,GGCAGAGCUCCAUACAGCGUGGCAAAGUGGCUGUGGCUAGCCUGCC,0.02
21,GGCAGAGCUCCACACAGCCUGGCAAAACGGGUGUGGCUAGACUGCC,0.01
22,GGCAGAGCUUAACACAGCGUGGCAAAGUGGCUGUUGCUCGACUGCC,0.03
23,GGCAGAGCUUAACACAGCGGGGCAAAGUGGCUGUGGCUCGACUGCC,0.2

row,Variant,self-cleavage
1,GGCAGAGCUCCACACAGGGUGGCAAAGUGGCUUUGGCUAGUCUUAC,0.02
2,GGCAGAGCUCCACACAGCGUGGCAAAGUGGGUUUGGCUAGACUGCC,0.01
3,GGCAGAGCUCCACCCAGCGUGGCAAAGUGGCUGUGGCCAGACUGCC,0
4,GGCAGAGCUCCAGACAGCGUGGCAAAGAGGCUGUGGGUAGACUGCC,0.01
5,GGCAGAGCUUAACACAGCGUGCCAAAUUGGCCGUGGCCAGACUGCC,0.01
6,GGCAGAGCUCCACACACCGUGGCAAAGUGUAUGUGGCUAGACUGCC,0.01
7,GGCAGAGCUCCACACAGCGUGGCAAAGUGGAUGGGGCUAGCCUGCC,0.01
8,GGCAGAGCUUAACACAGCUUGGCUAAGUGGCUGUGGCUAGACUGCC,0.14
9,GGCAGAGCUCCACACAGCGUGGCAAGGUGGCUGUGGCUAGACUGUC,0.06
10,GGCAGAGCUCCACACAGCGUGGCAAGGUGGCUGUGGCUAGACUGAC,0
11,GGCAGAGCUCCACAUAGCGUGUCAAAGUGGCUGUGGCUAGACUGCC,0.03
12,GGCAGAGCUCCACACAGCGUGGGAAAGUGGCUGUGGCUAGACCGGC,0.04
13,GGCAGAGCUUAACACAGCGGGGCAAAGUGGCUGUUGCUAGACUGUC,0.03
14,GGCAGAGCUCCACGCAGGGUGACAAAGUAUCUGUGGCUAGAAAGCC,0.02
15,GGCAGAGCUCCACACAGAGUGGCAAAGUGGCUAUUGCUAGACUGCC,0
16,GGCAGAGCUCCACACAGAAUGGCAAAGUUGCUGUGGCUAGACUGCC,0.04
17,GGCAGAGCUCCACAGAGCGUGGCAAAGUGGUUGUCGCUAGACUGCC,0.01
18,GGCAGAGCUCCACACUGCGUGGCCAAGUGGCUGAGGCUAGACUGCA,0
19,GGCAGAGCUCCGCACAGCGUGGCGAACUGGCUGUGGCUAGACUGAC,0.02
20,GGCAGAGCUUAACACAGCGCGGCAAAGUGGCUGCGCCUAGACUUCC,0.02
21,GGCAGAGCUUAACACAGCGUGGCAAAGGGGCUGUGGGUUGACUGCC,0.02
22,GGCAGAGCUUAACACAGCGAGGCAAAGUGGCUGUGGCUAGACUACC,0.03
23,GGCAGAGCUUAACACAGCGUGGCAAAGUGGCUGCGGCUAUACUUCC,0.04

row,Variant,self-cleavage
1,GGCAGAGCUUAACACAGCGUAGCAAAGUGGCUGUGCCUAUACUGCC,0.01
2,GGCAGAGCUCCUCACAGCGUGGCAAAGUGGCUGUGGCUAGACUUCC,0.01
3,GGCAGAGCUCCUCAUAGCGAUGCAAAGUGGGUGUGGCUAGACUGCA,0.01
4,GGCAGAGCUUAACACAGCGUGACAAAGUGGCUGUGGAUAAAAUGCC,0.01
5,GGCAGAGCUCCACACAGUGUGGCAAAGUGGAUGUGGCUUGACUUCC,0
6,GGCAGAGCUCCACACAGCGUGGCAAGGUGCCUGUGGCUAGACUGCA,0
7,GGCAGAGCUUAACACAGCGUAGCAAAGUGACUGUGGCUAGACUGCC,0.74
8,GGCAGAGCUUAACACAGCGUGGCAAAGUUGCUGUGGCUGGACUGCC,0.12
9,GGCAGAGCUCCCCACAGCGUCGCAAAGUUUCUGUGCCUAGACCGCC,0
10,GGCAGAGCUCCACAGAGCCUGGCAAAGUGGCUAUGGCUAGACUGCC,0.01
11,GGCAGAGCUUAACACAGCGUGGCAAAGUGGCUGUGGCUAUACGGCC,0.02
12,GGCAGAGCUUAACACAGCGUGCCAAAGUGACUGUGGCUAGACUGCC,0.37
13,GGCAGAGCUCCACACAGCGUGGCCAGCUGGCUGUGGGUAUACUGCC,0
14,GGCAGAGCUCCACACAGCGUGGCAAGGAGGCUAUGGCUAGACUGCC,0.01
15,GGCAGAGCUCCACACACAGUUGCGAAGUGGCUGUGGCUGGACAGCC,0.01
16,GGCAGAGCUUAACACAGCGUGUCAAAGUGGCUGCGCCUAGCCUGCC,0.01
17,GGCAGAGCUCCACGGUGAGUGGCAAAGUGUCUGUGGCUAGACUGCC,0.01
18,GGCAGAGCUCCACGCAGCGUGGCAAAGUGGCUGUGGCUAGCCUGCC,0
19,GGCAGAGCUCCCCACUGCGUGGCAAAGUGGCUGUGGCUAGACUGCC,0.02
20,GGCAGAGCUUAACACAGCGUGGCAAAUUGGCUGUGGAUAUAUUGCC,0.05
